Experimental data published in the CheMixHub viscosity set.
Values joined by “and” are separate entries in the source; they are usually repeats but may differ in a detail not shown here. Equal entries are not always repeated. This continues a long series; more values of the same kind are listed elsewhere.

Experiment: xn = mol fraction of the nth substance listed

CC(C)O + O
Conditions | viscosity
293.15 K, 100 kPa, x1 = 0.167 | 3.627 mPa·s
293.15 K, 101 kPa, x1 = 0.023 | 1.51 mPa·s
293.15 K, 101 kPa, x1 = 0.06 | 2.42 mPa·s
293.15 K, 101 kPa, x1 = 0.101 | 3.15 mPa·s
293.15 K, 101 kPa, x1 = 0.19 | 3.78 mPa·s
293.15 K, 101 kPa, x1 = 0.3 | 3.726 mPa·s
293.15 K, 101 kPa, x1 = 0.331 | 3.75 mPa·s
293.15 K, 101 kPa, x1 = 0.4 | 3.481 mPa·s
293.15 K, 101 kPa, x1 = 0.448 | 3.47 mPa·s
293.15 K, 101 kPa, x1 = 0.462 | 3.4 mPa·s
293.15 K, 101 kPa, x1 = 0.5 | 3.18 mPa·s
293.15 K, 101 kPa, x1 = 0.6 | 2.888 mPa·s
293.15 K, 101 kPa, x1 = 0.615 | 2.96 mPa·s
293.15 K, 101 kPa, x1 = 0.7001 | 2.655 mPa·s
293.15 K, 101 kPa, x1 = 0.788 | 2.6 mPa·s
293.15 K, 101 kPa, x1 = 0.8999 | 2.395 mPa·s
293.15 K, 101.33 kPa, x1 = 0.0322 | 1.61 mPa·s
293.15 K, 101.33 kPa, x1 = 0.114 | 3.145 mPa·s
293.15 K, 101.33 kPa, x1 = 0.231 | 3.817 mPa·s
293.15 K, 101.33 kPa, x1 = 0.25 | 3.859 mPa·s
293.15 K, 101.33 kPa, x1 = 0.268 | 3.843 mPa·s
298.15 K, 100 kPa, x1 = 0.1 | 2.44 mPa·s
298.15 K, 100 kPa, x1 = 0.167 | 2.951 mPa·s
298.15 K, 100 kPa, x1 = 0.25 | 3.049 mPa·s
298.15 K, 100 kPa, x1 = 0.4 | 2.865 mPa·s
298.15 K, 100 kPa, x1 = 0.5 | 2.63 mPa·s
298.15 K, 100 kPa, x1 = 0.8 | 2.104 mPa·s
298.15 K, 100 kPa, x1 = 0.9 | 2.031 mPa·s
298.15 K, 101 kPa, x1 = 0.0322 | 1.45 mPa·s and 1.424 mPa·s
298.15 K, 101 kPa, x1 = 0.0439 | 1.576 mPa·s
298.15 K, 101 kPa, x1 = 0.0764 | 2.198 mPa·s
298.15 K, 101 kPa, x1 = 0.114 | 2.741 mPa·s and 2.801 mPa·s
298.15 K, 101 kPa, x1 = 0.1497 | 2.854 mPa·s
298.15 K, 101 kPa, x1 = 0.2173 | 3.097 mPa·s
298.15 K, 101 kPa, x1 = 0.231 | 3.481 mPa·s and 3.422 mPa·s
298.15 K, 101 kPa, x1 = 0.2855 | 3.053 mPa·s
298.15 K, 101 kPa, x1 = 0.3 | 3.068 mPa·s
298.15 K, 101 kPa, x1 = 0.4 | 2.894 mPa·s
298.15 K, 101 kPa, x1 = 0.4036 | 2.862 mPa·s
298.15 K, 101 kPa, x1 = 0.412 | 3.38 mPa·s
298.15 K, 101 kPa, x1 = 0.413 | 3.383 mPa·s
298.15 K, 101 kPa, x1 = 0.5 | 2.667 mPa·s and 2.646 mPa·s
298.15 K, 101 kPa, x1 = 0.5263 | 2.581 mPa·s
298.15 K, 101 kPa, x1 = 0.6 | 2.441 mPa·s
298.15 K, 101 kPa, x1 = 0.6897 | 2.283 mPa·s
298.15 K, 101 kPa, x1 = 0.7001 | 2.256 mPa·s
298.15 K, 101 kPa, x1 = 0.73 | 2.8 mPa·s and 2.757 mPa·s and 2.774 mPa·s
298.15 K, 101 kPa, x1 = 0.7874 | 2.177 mPa·s
298.15 K, 101 kPa, x1 = 0.7999 | 2.127 mPa·s
298.15 K, 101 kPa, x1 = 0.8475 | 2.106 mPa·s
298.15 K, 101 kPa, x1 = 0.8999 | 2.054 mPa·s
303.15 K, 100 kPa, x1 = 0.167 | 2.43 mPa·s
303.15 K, 101 kPa, x1 = 0.1 | 2.047 mPa·s
303.15 K, 101 kPa, x1 = 0.2 | 2.532 mPa·s
303.15 K, 101 kPa, x1 = 0.3 | 2.551 mPa·s and 2.579 mPa·s
303.15 K, 101 kPa, x1 = 0.4 | 2.425 mPa·s and 2.458 mPa·s
303.15 K, 101 kPa, x1 = 0.5 | 2.253 mPa·s and 2.285 mPa·s
303.15 K, 101 kPa, x1 = 0.6 | 2.076 mPa·s
303.15 K, 101 kPa, x1 = 0.7 | 1.96 mPa·s
303.15 K, 101 kPa, x1 = 0.7001 | 1.934 mPa·s
303.15 K, 101 kPa, x1 = 0.7999 | 1.824 mPa·s
303.15 K, 101 kPa, x1 = 0.8 | 1.854 mPa·s
303.15 K, 101 kPa, x1 = 0.8999 | 1.772 mPa·s
303.15 K, 101 kPa, x1 = 0.9 | 1.79 mPa·s
303.15 K, 101.33 kPa, x1 = 0.0322 | 1.23 mPa·s
303.15 K, 101.33 kPa, x1 = 0.114 | 2.072 mPa·s
303.15 K, 101.33 kPa, x1 = 0.231 | 2.558 mPa·s
308.15 K, 101 kPa, x1 = 0.0322 | 1.085 mPa·s and 1.072 mPa·s
308.15 K, 101 kPa, x1 = 0.1 | 1.718 mPa·s
